# Source: publication PMC12136788
# The other results are listed elsewhere or left out.
# T1: UNK ZnF1-3 (human, UniProt Q9C0B0 31-174)
# T1 sequence: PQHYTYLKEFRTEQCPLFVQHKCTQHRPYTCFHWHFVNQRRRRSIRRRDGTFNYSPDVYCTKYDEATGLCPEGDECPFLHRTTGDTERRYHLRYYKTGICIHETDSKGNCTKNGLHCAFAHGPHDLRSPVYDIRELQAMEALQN
# B1: chr12:110929859:110929860:-_ENSG00000111237_ENST00000549970|hu_hu|FALSE|FALSE (ssRNA)
# RNA: GGGAGUUCUACAGUCCGACGAUCCUGGCUUUAAGGUUUUUUGUAUUCGAUUCGUUCUACUUUCACAUCAUCUCCAAUUAGCUGAUACACAUAGGUGACCACUGUAGAAGCCUGGAUAUCCAUCAACACAAAUGAUGGAAUAAUCAACAGAGGAUUGAGCAUCA
# B2: chr2:65315729:65315730:-_ENSG00000138069_ENST00000409751|hu_mus|FALSE|FALSE (ssRNA)
# RNA: GGGAGUUCUACAGUCCGACGAUCAACAUUGGACUUCUCGGCACCACCAGCUGUAGCUCCAGGACCCAUUCGCUUUUUAAUCUCAGCUGCCAUCGUCAUGAAAGACUGUUCUACAUUCGUUGCGUUCUUAGCACUGGUUUCCAACAACAGAGGAUUGAGCAUCA
# B3: chr14:57521792:57521793:+_ENSMUSG00000021945_ENSMUST00000022511|mus_hu|FALSE|FALSE (ssRNA)
# RNA: GGGAGUUCUACAGUCCGACGAUCGGAAGGAGUAAUUUUGGAAUCAUUUCCUUGUAGUUCUUCAUUUUUUGAUGAUGUAAAUGUUAUGGUUCUUUGAUCAGCUACCACUGGUACAGAAGGUGGGGGAGGUUGUACAGGUUCGAUCAACAGAGGAUUGAGCAUCA
# B4: 84692430_84692550_306_3pUTR_ENSMUSG00000036766_ENSMUST00000049126|mouse|control|control (ssRNA)
# RNA: GGGAGUUCUACAGUCCGACGAUCGCAGCUGCGGGAGCCCGUGGUUCCCCGGGCAACCGCGGGCGGGGCCGGGGGCGGGGCCCACGGAGGCUGGGCUCCCGGCUGGAGGACCCGGGAUGGGAACCCUUCUGCUCCGCGUCUCAGCAACAGAGGAUUGAGCAUCA
# B5: chr8:8618132:8618133:-_ENSMUSG00000001300_ENSMUST00000001319|mus_mus|FALSE|FALSE (ssRNA)
# RNA: GGGAGUUCUACAGUCCGACGAUCCUCCAAAUAAGGGGACAGUUGGUAGAUUGUCAUUUUCUGCACCAGACACAAAACAGACGCACAGGACACUUCUCAAUGGGUUGCAGGUAACUCAACUCUUCAUCAAUUCAUCCGAUUCUUCAACAGAGGAUUGAGCAUCA
# B6: 155541402_155541522_531_ncRNA_ENSMUSG00000041936_ENSMUST00000154494|mouse|control|control (ssRNA)
# RNA: GGGAGUUCUACAGUCCGACGAUCACUCGAAGCCAGCGGUUGGUGUUGACCUUCACAGUGGAGCGCAGCACAACUGGCUGGGAGCCUAGGUCAUAGCUCAGUUGUAGGUGCCCAUCCACAAUGGCCAGAGCCAUGUAGUCUGCACAACAGAGGAUUGAGCAUCA
# B7: chr2:202488911:202488912:-_ENSG00000155755_ENST00000286196|hu_mus|hu_hu_hu_mus_False|48_98 (ssRNA)
# RNA: GGGAGUUCUACAGUCCGACGAUCAUUGAAACAUUUUCAUAAUAUUGCAGUAGCAUUUCAGCAUUAUGUAACAAAAGCUCAAUUGUAAAUACACAUGUCUUAUAAAAAUACACUUAAAAACACGAGUGGGGAGCGCAGGCGCCACAACAGAGGAUUGAGCAUCA
# B8: chr14:34224135:34224136:-_ENSMUSG00000021936_ENSMUST00000111945|mus_mus|FALSE|FALSE (ssRNA)
# RNA: GGGAGUUCUACAGUCCGACGAUCCUUUAAAUUCUGGUAUCGUUUUAGGACUGUGAAUGUAGAAUCUCCAAUCUCUACACUAUAAAAAUUGUUGUCACGUUUGCUUCUGCUCAUGAUGGCAAGCAAUUAGUCUAAUGGCUUCAUCAACAGAGGAUUGAGCAUCA
# B9: chr4:148554787:148554788:-_ENSMUSG00000063077_ENSMUST00000060537|mus_mus|motif|central (ssRNA)
# RNA: GGGAGUUCUACAGUCCGACGAUCCUACAAGUCUUAGCACAAGAAUAAGAAGAGUCAGAGCCAUGGAGAGGGAACAGAGAGCGGGAGAAGUGCAGGGUGAGGAGGGAAAAGUCGUUAAGCCACAGGAUUACAUACAAGAAUAACCAACAGAGGAUUGAGCAUCA
# B10: chr17:73774127:73774128:-_ENSG00000132475_ENST00000254810|hu_hu|motif|central (ssRNA)
# RNA: GGGAGUUCUACAGUCCGACGAUCAUGACAAGACUCCCCACCACUUGUGAAUGUAAAACAUUUAAUUUAAAAAUGUUGAUACGGCAAUAUAUAAAAUAGCUAUUAUAAAUGCACAUAGUGUAUUCUAUAGCUGCCAGGUUUACUCAACAGAGGAUUGAGCAUCA
# B11: chr10:73576327:73576328:-_ENSG00000197746_ENST00000394936|hu_hu|FALSE|FALSE (ssRNA)
# RNA: GGGAGUUCUACAGUCCGACGAUCGCCAGAGGCCUAGGAGCUCGCCAUCCAUAUUUAUUUGAAAAGGUCAAAAGGAGCAUCUAUGAGACAAGGGAGGGGUGCAGGCUGAAGCAGCGCCUCAACAGCCAGGGACAUGUAGGCAACCAACAGAGGAUUGAGCAUCA
# B12: chr12:70905630:70905631:-_ENSMUSG00000034761_ENSMUST00000110570|mus_mus|FALSE|FALSE (ssRNA)
# RNA: GGGAGUUCUACAGUCCGACGAUCUAAGGCAACCCUGUAUGAAACUGUCGUAAAAUAUUCUGUUAAGGGAAGCUGUAUGUGCUAGACCUCCAACACGCCGCCAGGAACCCCCAAAGCACUACUCUGAGAAGGUAAACAACAUUUCAACAGAGGAUUGAGCAUCA
# B13: 41682097_41683073_2210_CDS_ENSG00000064042_ENST00000396595|human|control|control (ssRNA)
# RNA: GGGAGUUCUACAGUCCGACGAUCUGUCCCACUGCCUUCAGUCAUGGAGGAAGAGGUAGACAGCUGGUCAGCGGAACUUGAAGAAACAGUAAAUGGAACCACAGUGUCUUCAAUUAUCUUACGCUCCUCCUCAUAGUAUCUGCGCAACAGAGGAUUGAGCAUCA
# B14: chr16:55990476:55990477:+_ENSMUSG00000022601_ENSMUST00000050248|mus_mus|motif|central (ssRNA)
# RNA: GGGAGUUCUACAGUCCGACGAUCUAGUUUAUGUACACUUUCACAAAUUUCUAAAACUUCUGACAUAAAAAGGUGGCGAGCGGAGACGGCUACAUCAGCCAUGCUACAAAAGUCAAAACUUAGUACAGAAGUAUAGGCAAAUUCCAACAGAGGAUUGAGCAUCA
# B15: 75685096_75687080_2459_CDS_ENSG00000169375_ENST00000360439|human|control|control (ssRNA)
# RNA: GGGAGUUCUACAGUCCGACGAUCAAGUGAGAGGUGUGGGCCAACAGGUACACCAGCAUUCUCCUCCGUAGCCUGCUCUUGCCUCUCAUCAUAGAUACUCUCAAUCUCAUUGAGUAAGCUCUUAGACCUCAGGACCUUGGUGUCCAACAGAGGAUUGAGCAUCA
# B16: 69811592_69815821_3580_CDS_ENSMUSG00000044308_ENSMUST00000055758|mouse|control|control (ssRNA)
# RNA: GGGAGUUCUACAGUCCGACGAUCAAACUCUGCGAGCAAUUUCUGCUGCCUUUCUCUAGCCUUUUGUCGCCUUUCCUCCUUGUCCAGAGUUUUCUUCUCCGCUGCGGUGAUUUUUUUGGGUGGCACAGGAGGGGUCACUUUUCUCAACAGAGGAUUGAGCAUCA
# B17: 234758460_234762508_291_CDS_ENSG00000123485_ENST00000411486|human|control|control (ssRNA)
# RNA: GGGAGUUCUACAGUCCGACGAUCUUGCACGGAGCCAUCUGUCCUGUCCGCGGGCUUCAUGGAGGAGUCCUGGAUCUCUCCUUCGUUUCUUUCCUUUAUUAGUCUUCCACCCCAAAUUCUCAAUCCCUGUGGCGUCUCGUAGGUCAACAGAGGAUUGAGCAUCA
# B18: chr8:30643436:30643437:-_ENSG00000104695_ENST00000221138|hu_mus|motif|central (ssRNA)
# RNA: GGGAGUUCUACAGUCCGACGAUCGAAUUCUUAAAAAAUAAAACUCCAACUCUAUAAUCCAUGCCAGUUAAACUUGUUAACGGAAUUUCCAAGUAAGCGCAAAGGAGACGAAGCAGUCAGUGACCCUUUUUGCUUAACCAGUCACAACAGAGGAUUGAGCAUCA
# B19: chr7:65705844:65705845:+_ENSG00000169902_ENST00000304842|hu_mus|hu_hu_hu_mus_False|18_68 (ssRNA)
# RNA: GGGAGUUCUACAGUCCGACGAUCAAACGGAUCUUUGUUACAUAAAUAAGGUGCCGGCUCCCCAUGUUUAACGAUAACCUCCAGAAGGAAGGCUUGCAUGGCAGAAUCUAGCACUUCAUCAGUAACACCCGCCUCAUCCAAGCGCAACAGAGGAUUGAGCAUCA
# B20: chr19:36179134:36179135:+_ENSMUSG00000024800_ENSMUST00000025714|mus_mus|FALSE|FALSE (ssRNA)
# RNA: GGGAGUUCUACAGUCCGACGAUCUACUGUUAUUCAUUAUUCACAUGAAGGAUAAAAUAGUUUUUCUCUUAAAGUAUAUCUAAAUUAAUUAAGCUGUUAGUCUUUAAAAAAUGCUUCACUGGGUUUUAUUUGCUGUUUUAAUGGCAACAGAGGAUUGAGCAUCA
# B21: chr5:135496556:135496557:+_ENSG00000113658_ENST00000545279|hu_hu|FALSE|FALSE (ssRNA)
# RNA: GGGAGUUCUACAGUCCGACGAUCGUUCCUAAACUGAACCAGAAGGCUGUGUUGUGGAUUGAAUUCAUUAUGACGAGGCACUAAUACUGGAGGUAAGACUGGACUCUCCACUCUCUUAUAGUGGUAUGGGUUGAUACAAACUUCCAACAGAGGAUUGAGCAUCA
# B22: chr17:56552419:56552420:-_ENSMUSG00000013236_ENSMUST00000086828|mus_mus|mus_mus_mus_hu_False|1_108 (ssRNA)
# RNA: GGGAGUUCUACAGUCCGACGAUCAAAGUUUUUUUCUUUUAAAAAAAAUGAAAUGUCACGGGAUACAGUUACACUGAGAGUUUUAAAAGAAAGCUGGAUUCUGGUCCCAGCCCAGUGUCCCCAGGCUGCAGAGCGGGGCAGAGGCAACAGAGGAUUGAGCAUCA
# Biological target: T1, UNK ZnF1-3
# Test: nsRBNS (natural sequence RNA bind-n-seq); RBNS binding buffer (assumed for nsRBNS): 25 mM Tris pH 7.5, 150 mM KCl, 3 mM MgCl2, 0.01% Triton X-100, 500 ug/ml BSA, 20 U/ml SUPERase-In, 4 C; UNK is unkempt and MSI1 is Musashi-1; names of the RNAs are library labels; protein concentration not given here; high values mean tight binding
row,Binder,binding signal [enrichment R]
1,B1,1.12
2,B2,1
3,B3,1.46
4,B4,1.07
5,B5,1.06
6,B6,0.675
7,B7,0.923
8,B8,0.665
9,B9,2.41
10,B10,1.36
11,B11,2.54
12,B12,1.29
13,B13,0.918
14,B14,1.21
15,B15,0.663
16,B16,0.436
17,B17,0.585
18,B18,1.07
19,B19,0.267
20,B20,2.58
21,B21,1.44
22,B22,1.2
